We go through 84 compounds from PubChem BioAssay (NCI).

“And” between values parts separate entries of the source, which are not always exact repeats. Identical values can stand only once.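 Five compound concentrations were applied to cells in 96-well plates for 48 hours; endpoints were derived by simple linear interpolation of the resulting dose-response curve. Abbreviation: GI50, concentration required for 50% inhibition of growth. TGI denotes the concentration required for complete inhibition of growth.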 Square brackets hold non-standard residues; d marks the D form. Peptide text beside a SMILES is read from it. * marks the point of attachment. hSer = N[CH](CCO)C(=O)O; Boc = CC(C)(C)OC(=O)*

The subject of this experiment is NCI-H322M lung. Nature of the experiment: NCI tumour cell line growth inhibition, 48 h.

Regarding `CC1(C)CCc2c(cc3c(c2O)CCC(C)(C)O3)O1`, the TGI is over 100 µM. Turning to `O=C(CC12CC3CC(CC(C3)C1)C2)NCCOCCOCCNC(=O)c1cc2c(o1)C(=O)c1ccccc1C2=O`, the GI50 was 1.16 µM and the TGI is 2.42 µM. In the case of `COC(=O)OC[C@H]1O[C@@H](n2cc(C)c(=O)[nH]c2=O)CC1OC(=O)OC` (some centres undefined), the TGI was over 100 µM. `ClCCN(CCCl)Cc1ccc(Nc2ccnc3cc(Cl)ccc23)cc1`: the GI50 was 2.79 µM and the TGI turned out to be 6.8 µM. Take `CN1CC(c2ccccc2)=Cc2c1ccc(N)c2N=N`: the TGI was over 100 µM.

As for `CCCOC(=O)N[C@H]1CCc2c(Br)c(OC)c(OC)c(OC)c2-c2ccc(SC)c(=O)cc21`, the GI50 was 0.0513 µM and the TGI is over 100 µM.

The compound `O=C1CC(NC(=O)C(F)(F)F)c2c(Br)sc(N3CCC(c4ccccc4)CC3)c21` (centres undefined) came in with a TGI of over 100 µM. Compound `Cc1ccc(OP2(=O)Oc3ccc4ccccc4c3CN2c2ccc(Cl)cc2)cc1C` (centres undefined) displayed a TGI of over 100 µM. Regarding `O=C1Nc2ccc(F)c3c(OCCO)cc(-c4ccc[nH]4)c1c23`, the GI50 is 1.75 µM and the TGI was determined as 9.9 µM.

For `C[N+]1(C)C2Cc3ccccc3C1Cc1ccccc12`, the TGI is over 100 µM. The compound `CCCCCCCCCCCCCCCC[N+](C)(C)Cc1ccc(C[N+](C)(C)CCCCCCCCCCCCCCCC)cc1` gave a TGI of over 100 µM. `CCOc1ccc(NC(=O)Nc2cc(C(C)C)ccc2C)cc1`: the GI50 is 2.82 µM and the TGI amounted to 10.6 µM. On to `COc1ccc(-c2nc3ncccn3c2-c2ccc(S(C)=O)cc2)cc1` (centres undefined), for which the TGI is over 100 µM. With `C/C(=N\Nc1nc2cc(C)ccc2s1)c1ccccn1`, the TGI was 41.1 µM. Regarding `NCCC1(N)CCNCC1`, the TGI was over 100 µM.

`CCCCN(CC)C(=O)C(=O)C1C(=O)Nc2ccccc2S1=O` (centres undefined) came in with a TGI of over 100 µM. `O=c1cnn(C2OC(CO)C(O)C(F)C2O)c(=O)[nH]1` (centres undefined) showed a TGI of over 100 µM. On to `OCC(O)CC[CH2][Sn]([c]1ccccc1)([c]1ccccc1)[c]1ccccc1` (centres undefined), for which the GI50 was 11.1 µM and the TGI came to 23.1 µM. Turning to `CN(C)[C@@H]1C(=O)C(C(N)=O)=C(O)[C@@]2(O)C(=O)C3=C(O)c4c(O)cccc4C[C@H]3C[C@@H]12`, the TGI is 6.64 µM. `COc1ccc2c(c1O)-c1c(OC)c(OC)cc3c1[C@H](C2)[N+](C)(C)CC3`: the TGI is over 100 µM. On the same count and under the same terms, under `CCOC(=O)NNC(=O)NCCNC(=O)NNC(=O)OCC` stands over 100 µM. For the compound `COc1ccc(/C=C2/CN(C(=O)c3ccccc3F)C/C(=C\c3ccc(OC)cc3)C2=O)cc1`, the GI50 is 20.8 µM and the TGI came to 84.6 µM. Compound `CN(NC(=O)c1ccco1)C1=NCCCCN1` displayed a TGI of over 100 µM. With `COc1ccccc1-c1cc2c3c(nc4ccccc42)C(=O)c2cccnc2-c3n1`, the GI50 was 6.85 µM and the TGI was 17.3 µM. With `FC(F)(F)c1cc(Nc2ccc3c(OCCCN4CCOCC4)cccc3n2)ccc1Cl`, the GI50 is 2.52 µM and the TGI was found to be 8.33 µM. For `COc1nc(OC)c2c(=O)oc(-c3ccccc3)cc2n1`, the TGI was over 100 µM. In turn, `O=c1cc2n(c(=O)[nH]1)C1OC(C(O)C1O)[C@@H]2CCO` (some centres undefined) returned a TGI of over 100 µM. `O=C(NCCNCCO)N/N=C/c1cccc([N+](=O)[O-])c1` returned a TGI of over 100 µM. On the same count and under the same terms, under `O=C(NC1CCCCC1)c1c(O)[nH]c(=S)[nH]c1=O` stands over 100 µM.

As for `Nc1ccccc1C#C/C=C\C#Cc1ccc(F)cc1F`, the GI50 is 10.5 µM and the TGI came to 34.9 µM. In turn, `O=CC1=CCCC2(C1)OCCO2` showed a TGI of over 100 µM. For `C[C@]12CC[C@H](O)CC1=CC[C@@H]1[C@@H]2CC[C@]2(C)C(=O)/C(=C/c3cccc(OCCCn4ccnc4)c3)C[C@@H]12`, the GI50 was 50.7 µM and the TGI is over 100 µM. Turning to `O=S(=O)(O)c1ccc(NN(c2c(O)ccc3ccccc23)S(=O)(=O)O)cc1`, the TGI was over 100 µM. `Cc1ccc(-c2cc(-c3ccco3)nc(N)n2)o1` returned a TGI of over 100 µM.

The compound `COCCC(NC(=O)C(CC(C)C)NC(=O)OC(C)(C)C)C(N)=O` (stereo not drawn) (Boc-Leu-[hSer](Me)-NH2; configuration not given here) came in with a TGI of over 100 µM. In turn, `CCOC(=O)c1nc2c3c(ncn2n1)Oc1c(c(-c2ccccc2)nn1-c1ccccc1)C3c1ccc(OC)c(OC)c1` (centres undefined) came in with a TGI of over 100 µM. Compound `CCOn1cc(C[C@@]2(O)C(=O)OC3[C@@H](O)CO[C@@]32O)c2ccccc21` (some centres undefined) yielded a TGI of over 100 µM.

Turning to `c1ccc(COc2ccc(C[P+](c3ccccc3)(c3ccccc3)c3ccccc3)cc2)cc1`, the TGI was found to be 10.8 µM. On the same count and under the same terms, the figure for `COc1c(C2(c3ccc(F)cc3)SCCCS2)c(=O)c1=O` is over 100 µM; for `COc1ccc(CNc2cc(OC)cc(OC)c2)cc1` it is over 100 µM; for `C=CCN1C(=O)CS/C1=N\NC(=O)c1c(C)nc2sccn12` it is over 100 µM. In the case of `C1=C2SSC3=CC=C(SSc4ccc(s4)SSC4=CC=C(SSC(=C1)S2)S4)S3`, the TGI was over 100 µM. The compound `COc1c2nc(CCl)n(C)c(=O)c2c(OC)c2c(=O)n(C)c(CCl)nc12` displayed a TGI of 8.49 µM. As to `c1cnc2c(c1)-n1cccc1C1(CCOCC1)NN2`, the TGI is over 100 µM. Take `C=C1C(=O)O[C@H]2[C@H]1CC/C(COC(=O)OCCCCCOC(=O)OC/C1=C/CC[C@@]3(C)O[C@H]3[C@H]3OC(=O)C(=C)[C@@H]3CC1)=C\CC[C@@]1(C)O[C@@H]21`: the GI50 was 3.51 µM and the TGI came out at 13.7 µM.

`Fc1cccc(F)c1C1SCC2=Nc3ccccc3CN21` (centres undefined) registered a TGI of over 100 µM.

On to `Cc1ccc(S(=O)(=O)N(C)C)cc1[N+](=O)[O-]`, for which the GI50 was over 100 µM and the TGI is over 100 µM.

In the case of `O=c1[nH]cnc2c1nnn2CCCn1nnc2c(=O)[nH]cnc21`, the TGI is over 100 µM. Compound `COc1cc(OC)c(-c2cc(=O)c3c(OC)c(OC)c(OC)c(OC)c3o2)cc1OC` had a TGI of over 100 µM. As to `CC(=O)[CH-]C(=O)c1ccccc1.CC(=O)[CH-]C(=O)c1ccccc1.[Nd+3].[OH-].[OH3+]`, the GI50 was over 100 µM and the TGI was over 100 µM. As to `COc1ccc(C(CC(=O)c2ccccc2)C(C(=O)c2ccccc2)C(c2ccc(OC)cc2)C2C(=O)NC(=O)NC2=O)cc1` (centres undefined), the GI50 is 63.9 µM and the TGI was over 100 µM.

`COc1ccc(OC)c(/C=C/[N+](=O)[O-])c1`: the TGI is 14.8 µM and 14.3 µM. As for `Nc1c(Br)cc(-c2cc(Br)c(N)c(Br)c2)cc1Br`, the TGI is over 100 µM. For the compound `OCC1SC(n2cnc3cncnc32)C(O)C1O` (centres undefined), the GI50 was over 100 µM and the TGI is over 100 µM. `COc1ccc(CN2C(=O)CCC/C=C\[C@H]2CI)cc1` gave a TGI of 25.9 µM. Same read-out and setting: under `O=C(NO)c1ccc(C(=O)NO)cc1` stands over 100 µM; under `CCOC(=O)C(NCc1ccccc1)(NC(=O)c1ccccc1)C(F)(F)F` (centres undefined), over 100 µM. Regarding `OCCN1CCN(CCCN2c3ccccc3Sc3ccc(C(F)(F)F)cc32)CC1`, the GI50 is 6.47 µM and 12.9 µM and 14 µM; the TGI is 13.2 µM and 27.6 µM and 31 µM. On to `O=C(c1ccccc1)c1ccc(-c2ccc(O)cc2)cc1`, for which the GI50 was 4.04 µM and the TGI worked out at 51.1 µM. Compound `O=S(=O)(c1cccc(C(F)(F)F)c1)N1c2ccccc2-n2cccc2C1c1cccnc1` (centres undefined) came in with a TGI of over 72.2 µM.

With `COc1ccc(C(=O)C2CC3(CCC2(O)c2ccc(OC)cc2)CC(=O)Nc2ccccc2C3=O)cc1` (centres undefined), the TGI was over 100 µM. Turning to `COC1/C=C\C=C(/C)C(=O)NC2=CC(=O)C(NCCCl)=C(CC(C)CC(OC)C(O)C(C)/C=C(/C)C1OC(N)=O)C2=O` (centres undefined), the TGI is 16.3 µM.

As for `[Cu+2].[Cu+2].[O-]c1ccccc1C=Nc1ccccc1[O-].[O-]c1ccccc1C=Nc1ccccc1[O-]`, the GI50 is 9.31 µM and the TGI was 21.2 µM. With `CC(C)(C)c1nc2c(o1)C(=Nc1ccccc1)c1ccccc1C2=O`, the TGI was determined as 33.5 µM. Regarding `COC(=O)Cc1c([C@@H]2Nc3ccccc3[C@H]2CC(=O)OC)[nH]c2ccccc12`, the TGI is over 100 µM. With `COc1ccc2c(c1)Oc1nc(N)c(C#N)c(N)c1C2Sc1ccc(SC)cc1` (centres undefined), the GI50 is 1.69 µM and the TGI is 3.07 µM. With `COC(=O)C(=O)C(C(=O)C(=O)Nc1ccccc1C(=O)OC)c1nc2ccc(C(=O)c3ccccc3)cc2[nH]c1=O` (centres undefined), the TGI was over 100 µM. The same measure, in the same setting: under `Cc1ccc(N=Nc2c(O)c3ccccc3[nH]c2=O)c(S(=O)(=O)N(C)C)c1` stands over 100 µM; under `Cc1c(/C=C2\CC/C(=C\c3[nH]c(C(=O)OC(C)(C)C)c(C)c3C)C2=O)[nH]c(C(=O)OC(C)(C)C)c1C`, over 100 µM; under `CCOC(=O)C1(Cc2ccc(C)cc2)Cc2ccc(C)cc2C1=O` (centres undefined), over 100 µM. As for `Cc1c(Cl)cccc1NC(=O)CC1Sc2ccccc2NC1=O` (centres undefined), the TGI was 88.1 µM and 80.9 µM. For the compound `Cc1oc2ccccc2c(=O)c1Cn1nnc2ccccc21`, the TGI is over 100 µM.

The compound `Cc1cc(Br)c(N2C3=C(CC4=C2CCCC4=O)C(=O)CCC3)c(Br)c1` showed a TGI of over 100 µM. Same read-out and setting: the figure for `COc1cc2c(cc1O)[C@H](C)C(c1ccc(Cl)cc1)O2` (some centres undefined) is over 100 µM. Regarding `COc1cc(-c2c3c(cn2S(=O)(=O)c2ccccc2)-c2nc(N)sc2CC3)cc(OC)c1OC`, the GI50 was 7.45 µM and the TGI is over 100 µM. In the case of `CS(=O)(=O)c1nccc(-c2c(-c3cccc(OCc4ccc(F)cc4)c3)nc3sccn23)n1`, the GI50 was 2.95 µM and the TGI came to 7.4 µM.

As for `O=S(=O)(Nc1ccc(-c2nc(-c3cccc(OCCN4CCOCC4)c3)c(-c3ccnc(Br)c3)[nH]2)cc1)c1ccccc1`, the GI50 was 5.09 µM and the TGI is over 100 µM.

For `CO/N=C(\c1ccccc1)c1cnn(-c2ccccc2)c1N`, the GI50 was over 25 µM and the TGI is over 25 µM. In the case of `Oc1ccc(-c2cc(-c3c(O)cc(O)cc3O)on2)cc1`, the TGI is over 100 µM. Turning to `COc1ccc(-c2cc3c4c(nc5ccccc5c4c2)CC(c2cc(OC)c(OC)c(OC)c2)O3)cc1` (centres undefined), the GI50 was 3.02 µM and the TGI is over 100 µM. Regarding `CCCCCCC1CCC2CCCC(C)N12` (centres undefined), the TGI was over 100 µM. For the compound `C=C1C(=O)O[C@@H]2C[C@]3(C)[C@@H](C[C@H]12)[C@](C)(O)CC[C@@H]3O`, the TGI is over 100 µM. For `COC(=O)[C@]1(C)CCCn2c(=O)n(-c3ccccc3)c(=O)n21`, the TGI is over 100 µM.

With `O=c1c2cc([N+](=O)[O-])ccc2n2n1Cc1ccccc1CC2`, the TGI was over 100 µM.
